From paper PMC5953544
Results are given in words; binding and its absence hold for the method and conditions named. In cells and extracts the contact can be indirect. Some entries that bind do so weakly or less than the wild type. Sequences can lack the tags named with a protein.

The chains behind the UniProt entries cited, without tags or fusion partners.
UniProt Q9WVB2: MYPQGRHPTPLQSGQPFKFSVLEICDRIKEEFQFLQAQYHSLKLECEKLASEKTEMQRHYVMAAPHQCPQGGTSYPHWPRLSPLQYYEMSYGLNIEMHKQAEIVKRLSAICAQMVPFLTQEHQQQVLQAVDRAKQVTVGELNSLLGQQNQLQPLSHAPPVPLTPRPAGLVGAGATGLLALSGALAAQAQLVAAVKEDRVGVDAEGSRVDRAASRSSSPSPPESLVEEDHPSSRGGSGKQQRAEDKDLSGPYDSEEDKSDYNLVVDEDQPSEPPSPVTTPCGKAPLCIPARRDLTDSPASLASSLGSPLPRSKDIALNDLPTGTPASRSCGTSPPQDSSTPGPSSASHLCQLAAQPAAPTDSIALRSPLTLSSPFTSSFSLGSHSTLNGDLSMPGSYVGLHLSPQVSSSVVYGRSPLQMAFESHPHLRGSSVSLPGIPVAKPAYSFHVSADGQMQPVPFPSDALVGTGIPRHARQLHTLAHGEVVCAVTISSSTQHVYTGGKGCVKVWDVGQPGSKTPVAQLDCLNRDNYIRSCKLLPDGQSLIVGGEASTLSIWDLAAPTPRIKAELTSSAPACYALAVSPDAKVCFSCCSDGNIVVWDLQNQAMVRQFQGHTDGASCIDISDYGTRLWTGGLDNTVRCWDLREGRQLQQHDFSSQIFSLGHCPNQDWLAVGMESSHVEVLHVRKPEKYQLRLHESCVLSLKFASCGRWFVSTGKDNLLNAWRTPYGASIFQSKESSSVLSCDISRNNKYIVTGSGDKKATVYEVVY
UniProt Q62440: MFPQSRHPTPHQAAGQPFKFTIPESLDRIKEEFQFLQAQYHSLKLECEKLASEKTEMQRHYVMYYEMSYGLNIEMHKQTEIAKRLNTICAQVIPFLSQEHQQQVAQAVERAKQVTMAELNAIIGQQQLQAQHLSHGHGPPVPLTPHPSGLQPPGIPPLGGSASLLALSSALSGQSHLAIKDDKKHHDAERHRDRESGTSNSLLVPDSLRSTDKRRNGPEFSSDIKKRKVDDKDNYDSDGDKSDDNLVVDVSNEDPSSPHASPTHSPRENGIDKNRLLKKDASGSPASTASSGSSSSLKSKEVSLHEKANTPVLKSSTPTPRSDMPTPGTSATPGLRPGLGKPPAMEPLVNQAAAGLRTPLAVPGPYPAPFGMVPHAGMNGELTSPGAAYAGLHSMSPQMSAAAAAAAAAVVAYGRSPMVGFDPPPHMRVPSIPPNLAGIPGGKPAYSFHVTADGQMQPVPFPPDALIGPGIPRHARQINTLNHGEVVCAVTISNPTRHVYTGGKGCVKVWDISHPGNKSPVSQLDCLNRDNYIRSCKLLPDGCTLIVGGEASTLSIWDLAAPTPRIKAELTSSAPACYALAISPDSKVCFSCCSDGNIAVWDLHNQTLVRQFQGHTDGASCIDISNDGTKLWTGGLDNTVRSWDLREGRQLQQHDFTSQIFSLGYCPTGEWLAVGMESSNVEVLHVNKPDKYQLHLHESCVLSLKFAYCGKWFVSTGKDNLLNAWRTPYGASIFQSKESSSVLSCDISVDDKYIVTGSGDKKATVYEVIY

Columns and labels:
FLAG-Tbx6 (mouse) = target: T1, FLAG-Tbx6 (mouse) (UniProt P70327); assay: co-IP; HEK293T cells co-transfected with a FLAG-tagged and a Myc-tagged construct; lysis in 50 mM Tris-HCl pH 7.4, 150 mM NaCl, 1 mM EDTA, 0.5% NP-40, 1 mM DTT; anti-FLAG M2 affinity gel at 4°C; blots with anti-FLAG and anti-Myc
T1 sequence: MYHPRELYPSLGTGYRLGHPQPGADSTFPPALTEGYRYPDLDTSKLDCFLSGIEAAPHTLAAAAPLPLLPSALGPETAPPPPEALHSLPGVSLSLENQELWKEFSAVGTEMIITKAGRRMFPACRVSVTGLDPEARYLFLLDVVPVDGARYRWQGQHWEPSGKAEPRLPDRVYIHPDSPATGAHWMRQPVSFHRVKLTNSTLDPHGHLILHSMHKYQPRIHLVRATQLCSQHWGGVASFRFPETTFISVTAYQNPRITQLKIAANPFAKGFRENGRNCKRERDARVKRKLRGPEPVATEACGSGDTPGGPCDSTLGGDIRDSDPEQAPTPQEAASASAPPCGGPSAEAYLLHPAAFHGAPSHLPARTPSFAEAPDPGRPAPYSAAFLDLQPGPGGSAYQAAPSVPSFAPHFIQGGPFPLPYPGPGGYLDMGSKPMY

FLAG-TLE2 = FLAG-TLE2 (UniProt Q9WVB2); assay: as above
[1] = target: T2, FLAG-Tbx6_(1~124aa) (mouse) (UniProt P70327); assay: as above
T2 sequence: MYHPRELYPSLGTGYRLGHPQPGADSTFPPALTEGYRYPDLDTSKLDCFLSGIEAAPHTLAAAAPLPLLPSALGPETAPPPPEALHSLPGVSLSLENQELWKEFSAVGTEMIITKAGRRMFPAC

[2] = target: T3, FLAG-Tbx6_(1~152aa) (mouse) (UniProt P70327); assay: as above
T3 sequence: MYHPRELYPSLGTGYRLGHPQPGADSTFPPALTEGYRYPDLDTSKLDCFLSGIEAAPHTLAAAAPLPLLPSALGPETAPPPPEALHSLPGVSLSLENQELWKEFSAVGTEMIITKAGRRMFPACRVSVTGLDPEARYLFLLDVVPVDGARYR

FLAG-TLE1 (mouse) = FLAG-TLE1 (mouse) (UniProt Q62440); assay: as above
GST-Tbx6 (mouse) = target: T4, GST-Tbx6 (mouse) (UniProt P70327); assay: pull-down; supernatant of sonicated E. coli with GST or GST-Tbx6 (or mutant) mixed with purified His-Ripply2 and glutathione-sepharose 4FF, 2 hr; 25 mM HEPES-KOH pH 7.4, 150 mM NaCl, 0.1% NP-40, 1 mM DTT, 1 mM EDTA; blot with anti-Ripply2 (and anti-His); only the binder purified
T4 sequence: T1 sequence

FLAG-Ripply2 (mouse) = target: T5, FLAG-Ripply2 (mouse) (UniProt Q2WG76); assay: co-IP; lysates of Tbx6-venus knock-in mouse ES cells with Dox-induced FLAG-Ripply2 or its mutants, PSM-fated with CHIR99021 (for the proteasome blot also without differentiation induction); anti-FLAG beads; blots with anti-GFP, anti-FLAG, anti-proteasome 20S antibodies
T5 sequence: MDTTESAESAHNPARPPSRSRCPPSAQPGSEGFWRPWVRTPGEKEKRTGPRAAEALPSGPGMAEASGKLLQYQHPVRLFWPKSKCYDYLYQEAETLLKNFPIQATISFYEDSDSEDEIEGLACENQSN

B1: Myc-Ripply2 (protein, UniProt Q2WG76 1-128)
chain: T5 sequence
In the case of B1, the binding (FLAG-Tbx6 (mouse)) is reported as “binds”, the binding (FLAG-TLE2) is reported as “binds” and the binding [1] is reported as “no binding”. The binding [2] was “binds” and the binding (FLAG-TLE1 (mouse)) was “binds”.

B2: His-Ripply2 (protein, UniProt Q2WG76 1-128)
chain: T5 sequence
In the case of B2, the binding (GST-Tbx6 (mouse)) is reported as “binds”.

B3: Tbx6-venus (protein, UniProt P70327 1-436)
chain: T1 sequence
For B3, the binding (FLAG-Ripply2 (mouse)) was “binds”.
